We go through 3 substances from paper PMC12756210.

Chains of the proteins cited; added tags and fusions are not shown.
UniProt P05804: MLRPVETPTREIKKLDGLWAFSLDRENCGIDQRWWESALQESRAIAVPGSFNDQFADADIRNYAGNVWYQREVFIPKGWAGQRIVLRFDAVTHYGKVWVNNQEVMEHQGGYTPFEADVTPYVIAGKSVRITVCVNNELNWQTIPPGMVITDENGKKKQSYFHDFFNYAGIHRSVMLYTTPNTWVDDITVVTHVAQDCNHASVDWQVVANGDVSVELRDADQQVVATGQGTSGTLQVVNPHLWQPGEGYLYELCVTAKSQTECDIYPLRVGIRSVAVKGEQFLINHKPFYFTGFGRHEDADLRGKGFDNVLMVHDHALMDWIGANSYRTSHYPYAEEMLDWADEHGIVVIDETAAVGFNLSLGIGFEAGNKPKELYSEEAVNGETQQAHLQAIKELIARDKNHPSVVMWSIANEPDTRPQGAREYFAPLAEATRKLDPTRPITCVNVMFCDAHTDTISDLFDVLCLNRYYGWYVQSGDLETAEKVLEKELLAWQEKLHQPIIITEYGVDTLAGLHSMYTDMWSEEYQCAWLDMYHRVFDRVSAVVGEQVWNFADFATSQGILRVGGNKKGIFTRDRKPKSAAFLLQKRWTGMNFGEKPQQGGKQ

These are yes or no findings as the source states them, for the method shown. In cells and extracts the contact can be indirect. Tags and fused reporters may be left off the sequences shown.

One assay addresses T1, ZIP2-GFP (Arabidopsis) (UniProt Q9LTH9).
T1 sequence: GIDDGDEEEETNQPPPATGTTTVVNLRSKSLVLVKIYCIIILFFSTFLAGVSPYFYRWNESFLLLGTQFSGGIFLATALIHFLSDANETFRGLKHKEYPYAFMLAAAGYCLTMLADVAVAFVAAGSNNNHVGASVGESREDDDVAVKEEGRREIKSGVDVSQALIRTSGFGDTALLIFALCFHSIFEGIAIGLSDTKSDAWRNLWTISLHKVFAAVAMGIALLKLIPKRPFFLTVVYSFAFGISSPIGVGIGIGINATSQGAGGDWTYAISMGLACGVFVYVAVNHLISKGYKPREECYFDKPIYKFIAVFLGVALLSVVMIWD
Kind of assay: co-IP; total protein of 10-day-old transgenic Arabidopsis seedlings in IP buffer (50 mM Tris HCl pH 7.6, 150 mM NaCl, 0.5% NP-40); anti-GFP agarose beads; blots with anti-FLAG and anti-GFP antibodies.

The next assay concerns the target T2, ZIP2-cLUC (Arabidopsis) (UniProt Q9LTH9).
T2 sequence: T1 sequence
Kind of assay: split reporter; split luciferase complementation imaging (LCI): nLUC and cLUC fusions co-infiltrated by Agrobacterium GV3101 into N. benthamiana leaves, expressed 48 h, signal read by CCD.

The target in the next assay is T3, ZIP2-cYFP (Arabidopsis) (UniProt Q9LTH9).
T3 sequence: T1 sequence
Kind of assay: split reporter; BiFC: nYFP and cYFP fusions transiently co-expressed in N. benthamiana leaves with CBL1-OFP as plasma membrane marker; YFP fluorescence read 48 h after transfection.

Turning to GUS-FLAG (from UniProt P05804 1-603), the binding entry with ZIP2-GFP (Arabidopsis) was “no binding”.
With GUS-nLUC (from UniProt P05804 1-603), the binding entry with ZIP2-cLUC (Arabidopsis) is “no binding”.
As for GUS-nYFP (from UniProt P05804 1-603), the binding result in the assay with ZIP2-cYFP (Arabidopsis) is “no binding”.
